Data as given in paper PMC4336329 (PLoS ONE, 2015).
The campaign covered roughly 310,000 compounds. About 2,200 (0.71%) showed an effect of 50% or more. Effects have a minus sign here. The list shows a part of the results.

Biological target: human ether-à-go-go-related gene (hERG) potassium channel (human, UniProt Q12809)
Assay: primary screen, population patch clamp on CHO cells stably expressing hERG

Chain of human ether-à-go-go-related gene (hERG) potassium channel (Q12809 whole entry, looked up): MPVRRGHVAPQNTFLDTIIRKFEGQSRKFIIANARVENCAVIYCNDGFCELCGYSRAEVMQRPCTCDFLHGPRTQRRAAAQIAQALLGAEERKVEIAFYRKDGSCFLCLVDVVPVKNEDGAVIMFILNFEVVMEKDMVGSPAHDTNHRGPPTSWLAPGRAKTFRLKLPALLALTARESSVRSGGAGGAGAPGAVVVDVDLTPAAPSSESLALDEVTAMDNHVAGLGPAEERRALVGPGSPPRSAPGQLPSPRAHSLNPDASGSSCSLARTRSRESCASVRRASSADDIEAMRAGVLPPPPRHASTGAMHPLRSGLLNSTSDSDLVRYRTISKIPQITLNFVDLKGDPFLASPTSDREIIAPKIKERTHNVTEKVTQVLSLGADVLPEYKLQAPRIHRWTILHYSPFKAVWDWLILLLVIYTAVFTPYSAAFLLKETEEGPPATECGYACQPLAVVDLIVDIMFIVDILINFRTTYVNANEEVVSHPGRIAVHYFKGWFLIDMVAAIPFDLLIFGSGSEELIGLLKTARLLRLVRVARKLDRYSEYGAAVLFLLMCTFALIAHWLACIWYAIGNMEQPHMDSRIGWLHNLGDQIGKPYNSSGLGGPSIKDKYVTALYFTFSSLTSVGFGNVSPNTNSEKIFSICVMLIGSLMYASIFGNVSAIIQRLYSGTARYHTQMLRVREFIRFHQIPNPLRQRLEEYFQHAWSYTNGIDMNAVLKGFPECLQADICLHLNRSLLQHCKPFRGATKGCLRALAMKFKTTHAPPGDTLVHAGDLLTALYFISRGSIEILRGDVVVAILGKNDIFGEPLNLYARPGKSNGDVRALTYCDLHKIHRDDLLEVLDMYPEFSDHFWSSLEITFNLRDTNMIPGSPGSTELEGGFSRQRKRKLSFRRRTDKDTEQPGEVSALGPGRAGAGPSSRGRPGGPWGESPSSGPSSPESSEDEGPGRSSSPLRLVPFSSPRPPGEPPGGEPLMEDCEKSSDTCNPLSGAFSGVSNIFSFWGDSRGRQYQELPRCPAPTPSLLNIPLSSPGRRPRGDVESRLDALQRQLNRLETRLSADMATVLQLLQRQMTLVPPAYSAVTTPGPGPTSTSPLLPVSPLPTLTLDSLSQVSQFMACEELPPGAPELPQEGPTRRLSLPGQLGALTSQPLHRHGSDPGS

| Structure (SMILES) | hERG current change (%, negative = inhibition) at 1uM [%] |
| --- | --- |
| CC(C)(C)NC(=O)COc1ccc(CNCCc2ccccc2)cc1.Cl | -1.02 |
| CCOCCCNC(=O)C1CCN(Cc2ccc(OCc3ccccc3)c(OC)c2)CC1.O=C(O)C(=O)O | -4.58 |
| C=CCNc1nc2ccccc2nc1NS(=O)(=O)c1ccc(OC)cc1 | 4.8 |
| COc1cccc(CNC(=O)C2CCCN(S(=O)(=O)c3c(C)[nH]c(=O)[nH]c3=O)C2)c1 (stereo not shown) | 4.35 |
| Cc1noc(C)c1C(=O)OCC(=O)N(C)C1(C#N)CCCCC1 | -2.93 |
| Cc1cnc(C(=O)OCC(=O)N2c3ccccc3CC2C)cn1 (stereo not shown) | 10.6 |
| Cn1c(CNC(=O)c2ccc3c(c2)OCO3)nnc1SCC(=O)Nc1ccccc1Cl | 7.29 |
| COC(=O)CNC(=O)C(Cc1c[nH]c2ccccc12)NC(=O)Oc1ccccc1 (stereo not shown) | -1.05 |
| O=C1NC(c2cccc([N+](=O)[O-])c2)=CCN1c1ccccc1O | 7.97 |
| CN1C2C=C3C(C#N)=C(N)C(C#N)(C#N)[C@@H](c4ccsc4)[C@@H]3C1CC2 (stereo partly shown) | 11.8 |
| Cc1ccc(C(=O)COC(=O)COc2ccccc2[N+](=O)[O-])s1 | 17.1 |
| CC(C)(C)[C@@H]1C=C(C(=O)NC2CC2)O[C@H](OCc2ccc(CO)cc2)C1 | 8.97 |
| O=C(CSc1nccn1Cc1ccccc1)NC1CCCC1 | 14.8 |
| COc1ccc(C2c3c(oc4ccc(Cl)cc4c3=O)C(=O)N2CCN2CCOCC2)cc1 (stereo not shown) | -24 |
| Cc1cc(N2CCN(Cc3ccccc3)CC2)n2nc(C)c(-c3ccccc3)c2n1 | 0.371 |
| Cc1cc(C)n(CC(=O)N/N=C/c2ccccn2)n1 | 16.1 |
| CC(=O)c1ccc(N=Nc2c(C)[nH][nH]c2=O)cc1 | 14.1 |
| CCC(NC(=O)NC1CCCCC1)c1ccccc1 (stereo not shown) | 6.61 |
| O=C(O)C1CCCCC1C(=O)NCCc1ccc(Cl)cc1 (stereo not shown) | 14.9 |
| Cc1ccc2sc(NC(=O)C3CC3)nc2c1C | 8.01 |

| Structure (SMILES) | hERG current change (%, negative = inhibition) at 1uM [%] |
| --- | --- |
| CCOc1ncccc1C(=O)OCC(=O)N(CC(C)C)c1c(N)n(Cc2ccccc2)c(=O)[nH]c1=O | 16.1 |
| Cc1ccc(SCCNS(=O)(=O)c2ccc3c(c2)OCCO3)cc1 | 11.7 |
| O=C(N/N=C/c1cccnc1)c1ccc(NC(=O)c2ccccc2Cl)cc1 | 9.37 |
| COCCCNC(=S)N(CCCN(C)C)Cc1cc2cc3c(cc2[nH]c1=O)OCCO3 | 11.2 |
| COc1ccc(NC(=O)CSc2nnc(CN3CCOCC3)n2C)cc1Cl | 0.376 |
| O=C(NCc1ccncc1)Nc1ccccc1 | 14.7 |
| CN(C)c1ccc(S(=O)(=O)N(C)C)cc1NC(=O)Cc1cccc2ccccc12 | 3.98 |
| CCn1c(C)nc2cc(C(=O)NNC(=O)Nc3cccc(Cl)c3)ccc21 | 17.4 |
| Cn1c(NC2CCCCC2)cc(=O)n(C)c1=O | 8.89 |
| CC(=O)c1c(C)[nH]c(C(=O)Nc2cccc(C#N)c2)c1C | 10.3 |
| COc1ccc(NC(=O)c2ccc(COc3ccccc3)o2)cc1 | 6.3 |
| CCOC(=O)C(=NC1CCS(=O)(=O)C1)NNc1cc(Cl)ccc1Cl (stereo not shown) | 3.27 |
| Cc1ccc(OCC(=O)OC2CCS(=O)(=O)C2)cc1 (stereo not shown) | 3.88 |
| O=C(Nc1nc(-c2ccc(S(=O)(=O)N3CCCC3)cc2)cs1)c1cccs1 | 13.7 |
| CC(=O)Nc1ccc2c(c1)n(C)c(=O)n2C | 13.1 |
| Cn1c(COc2ccccc2)nnc1SCC(=O)Nc1ccc(S(N)(=O)=O)cc1 | 4.54 |
| CSC(=NC#N)N1CCN(c2ccc(Cl)cc2)CC1 | -6.45 |
| CCC(=O)N1CCc2cc(Br)cc(S(=O)(=O)NCC3CCCN3CC)c21 (stereo not shown) | 12.8 |
| COc1ccc(N2CCC(CNC(=S)Nc3ccc(C)cc3C)C2)cc1 (stereo not shown) | -2.67 |
| CCCN1C2=NCCN2c2ccccc21.Cl | 0.0662 |

| Structure (SMILES) | hERG current change (%, negative = inhibition) at 1uM [%] |
| --- | --- |
| CCc1noc(C)c1C(=O)OCC(=O)Nc1ncc(Cl)cc1Cl | 5.65 |
| CCC(c1nnnn1Cc1ccco1)N(Cc1ccccc1OC)Cc1cc2cc(C)ccc2[nH]c1=O (stereo not shown) | -3.92 |
| CC(=O)Nc1nc2ccccc2n1Cc1ccc(C)cc1 | 8.6 |
| CCC1(c2ccccc2)NC(=O)N(C)C1=O (stereo not shown) | -8.19 |
| COc1ccc(CN2CC(C(=O)NCCCN3CCOCC3)CC2=O)cc1 (stereo not shown) | 12.8 |
| O=C(COC(=O)c1cc(-c2ccccc2)nc2ccccc12)NCC1CCCO1 (stereo not shown) | 5.02 |
| COc1ccc(N2CCN(C(=O)COC(=O)CCc3ccccc3)CC2)cc1 | 1.09 |
| Cc1cc(=O)[nH]c(SCC(=O)Nc2nonc2C)n1 | 13.7 |
| CN(C(=O)c1ccccn1)c1nnc(-c2cnccn2)s1 | 12.8 |
| CCOC(=O)c1c(C)c(C(=O)Nc2ccccc2)c(C)n1CC | 10.1 |
| CCCCn1c(N)c(N(CC(C)C)C(=O)CSCc2cccc(C)c2)c(=O)[nH]c1=O | 16.1 |
| CCN(CCNC(=O)C1CCN(S(=O)(=O)c2c(C)noc2C)CC1)c1ccccc1 | 3.69 |
| C/C(=N\NC(=S)Nc1ccc(C)cc1)c1cc2ccccc2o1.CN(C)C=O | 14.1 |
| O=C(O)c1cn(Cc2ccccc2)nc1-c1ccccc1 | -1.91 |
| Cc1ccc2[nH]c(O)c(N=Nc3ccccc3C)c2c1 | 16.6 |
| Cc1occc1C(=O)N/N=C/c1cccnc1 | 7.08 |
| Cc1cccc2cc(COC(=O)c3cccnc3)c(=O)[nH]c12 | 8.22 |
| CCCC1C(=O)Nc2ccccc2N1C(=O)c1ccc(C(C)(C)C)cc1 (stereo not shown) | 15.3 |
